Measurements from PubChem BioAssay AID504374 (National Center for Advancing Translational Sciences (NCATS), 2011).
Hit rate of the full screen: of about 1,500 compounds, about 100 (6.7%) were called active. Another 7% or so got no clear call; they are omitted. Calls follow the shape of the dose curve; as a rule, active = well fitted inhibition curve with a large enough effect; inconclusive = small, poorly fitted or top-dose-only effect, or effect the other way; inactive = flat fitted curve, though single readings scatter. Some of the results follow.

Molecular target: Runt-related transcription factor 1 (Homo sapiens) + Core-binding factor subunit beta (Homo sapiens) (UniProt Q01196+Q13951)
Test: qHTS Assay for Compounds Blocking the Interaction Between CBF-beta and RUNX1 for the Treatment of Acute Myeloid Leukemia: Hit Validation; also: nearly all actives have a fitted effect of over 60% in size
Details: AlphaScreen CBFb-His/RUNX1-biotin binding; series mostly up to 59.8 µM; activity, negative = inhibition: at the top concentration
In short: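 AlphaScreen proximity assay: His-tagged CBF-beta and biotinylated RUNX1 (30 nM each) preincubated 20 min, then compound 15 min, then nickel and streptavidin beads 90 min, all at room temperature; signal read at […]em 440 nm.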
% is scaled to controls: 0 for no effect and ±100 for the full control effect; potency is read from the fitted curve at half-maximal effect.

Chain of UniProt Q01196 (Q01196 whole entry, looked up): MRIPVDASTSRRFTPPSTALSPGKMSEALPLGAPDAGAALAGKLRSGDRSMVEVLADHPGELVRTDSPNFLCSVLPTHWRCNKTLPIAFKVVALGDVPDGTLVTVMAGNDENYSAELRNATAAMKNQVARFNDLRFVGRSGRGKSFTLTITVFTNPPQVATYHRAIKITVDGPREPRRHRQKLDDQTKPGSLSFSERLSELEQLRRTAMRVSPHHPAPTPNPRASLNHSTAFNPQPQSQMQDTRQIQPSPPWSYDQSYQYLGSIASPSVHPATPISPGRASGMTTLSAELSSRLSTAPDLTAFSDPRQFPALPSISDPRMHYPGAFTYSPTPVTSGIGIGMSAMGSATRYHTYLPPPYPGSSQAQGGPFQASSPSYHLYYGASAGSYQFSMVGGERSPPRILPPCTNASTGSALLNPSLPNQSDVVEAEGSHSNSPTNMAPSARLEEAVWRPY
Chain of UniProt Q01196 (Q13951 whole entry, looked up): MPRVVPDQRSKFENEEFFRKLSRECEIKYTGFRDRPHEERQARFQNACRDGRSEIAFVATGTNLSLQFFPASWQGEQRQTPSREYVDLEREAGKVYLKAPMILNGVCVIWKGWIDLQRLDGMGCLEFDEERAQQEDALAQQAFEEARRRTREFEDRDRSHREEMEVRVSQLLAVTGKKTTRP

activity, negative = inhibition, inactive:
CC(=O)COc1nc2c(c(-c3ccco3)c1C#N)CCc1ccccc1-2 -7.83%
COc1ccc([N+](=O)[O-])c(S(=O)(=O)c2ccc(Cl)cc2)n1 -11.8%
COC(=O)c1ccccc1N=Nc1c(C)noc1C -12.2%
CC1CC(=O)Nc2ccccc2N1S(=O)(=O)c1ccc(Cl)cc1 (stereo not drawn) -2.41%
CC(C)(C)c1ccc(Oc2ccc(NC(=O)c3cccs3)cn2)cc1 4.18%
C=C1CC[C@H](O)C/C1=C/C=C1\CCC[C@]2(C)[C@H]1CC[C@H]2[C@@H](C)CCCC(C)C -21.8%
CC(C)Nc1cc(C(C)(C)C)nc2c(-c3ccccc3)cnn12 -8.45%
CCOc1cc(C(=O)NCCc2ccc(S(N)(=O)=O)cc2)cc(OCC)c1OCC -0.801%
CN(C(=O)Nc1ccc(Cl)cc1)n1cnc2ccccc2c1=O -1.87%
C/C(=N\Nc1ccc(Cl)c(C(=O)O)c1)c1ccccn1 -5.05%
N#Cc1c(-c2ccccc2Cl)c2c([nH]c1=O)-c1ccccc1OC2 4.48%
Cn1ncc(Br)c1NC(=O)Nc1ccc(OC(F)(F)F)cc1 -0.719%
Cc1ccc2[nH]cc(CCNC(=O)/C=C/c3ccco3)c2c1 -14.3%
Cn1cnc2c(N/N=C/c3cccs3)ncnc21 -14.8%
O=C(CSc1n[nH]c(=O)[nH]c1=O)N1CCCCCC1 -1.59%
Nc1nccc(/C=C/c2ccc(Cl)cc2)n1 -10.8%
O=C(CSc1nc(O)c(Cc2ccccc2)c(=O)[nH]1)c1ccccc1 -0.881%
CCN1CCN(c2nc3ccccn3c(=O)c2/C=C(\C#N)S(=O)(=O)c2ccccc2)CC1 3.17%
Cc1ccc(Sc2ncccc2NC(=O)c2ccccc2Cl)cc1 -3.58%
COc1ccccc1CC(=O)Nc1cccc(C(=O)Nc2nccs2)c1 -6.81%
COc1ccc2[nH]c(C(=O)N3CCCN(Cc4ccc(F)cc4)CC3)cc2c1 -10.3%
CCCN(CCC)C(=O)CC(c1ccccc1)c1ccco1 (stereo not drawn) 12.8%
Cn1cnnc1SCc1ccccc1[N+](=O)[O-] -6.48%
CCOC(=O)c1cn[nH]c1C(F)(F)F -1.59%
Cc1cc(C)c(C#N)c(SCCN2CCOCC2)n1 0.0944%
O=c1[nH]nc(N/N=C/c2ccc(Cl)cc2Cl)c(=O)[nH]1 -5.54%
O=C(NNC(=S)Nc1ccccc1C(F)(F)F)C1CC1 9.35%
CCOC(=O)c1cn[nH]c1NC(=S)Nc1ccc(Cl)cc1 -2.56%
C=CCn1c(SCc2ccc(F)cc2)nnc1-c1sc2nc(C)cc(C)c2c1N 1.13%
Cc1nn2c(N3CCN(CCO)CC3)c3c(nc2c1-c1ccccc1)CCCC3 7.83%
CC(C)(C)C(=O)Nc1ccc(NC(=O)C(C)(C)C)cc1 10.3%
COc1ccc2c(C)cc(C)nc2n1 6.91%
Cc1cc(C)n2nc(N)c(N=Nc3ccccc3)c2n1 -9.08%
CN(C)c1ccc(N2C(=O)CC(c3ccccc3)CC2=O)cc1 -1.11%
CCCc1c(C(=O)O)cnn1-c1ccc(Cl)cc1 5.98%
CC(=O)Oc1cc2c3c(c1)/C(=C1/SC(=S)NC1=O)C(=O)N3C(C)(C)C=C2C -17.8%
Cc1nn(-c2ccccc2)c(NC(=O)c2cccs2)c(-c2ccccc2Cl)c1=O -2.94%
Cc1nc(Nc2ccc(F)cc2)nc(Nc2ccc(F)cc2)c1[N+](=O)[O-] 18.1%
CC(C)NNC(=O)c1ccncc1 -29.6%
Cc1ccc(-c2nn[nH]n2)cc1Cl 0.848%
CCO/C=C1\SC(=S)N(c2ccc(Cl)cc2)C1=O -14.9%
CCOC(=O)c1cnn(-c2ccc(NS(=O)(=O)c3ccc(Cl)cc3)cc2)c1C(F)(F)F -3.82%
Cc1nc(C)c(-c2ccnc(/N=C/NO)n2)s1 -3.29%
Cc1oc(S(=O)(=O)N2CCCC2)cc1C(=O)Nc1ccccc1 3.56%
Cn1cnc(S(=O)(=O)Nc2ccc(OC(F)F)cc2)c1 1.32%
Cc1onc(-c2c(F)cccc2Cl)c1C(=O)c1ccc(F)cc1 5.2%
S=c1[nH]nc([C@@H]2C[C@H]2c2ccccc2)n1-c1ccccc1Cl -3.48%
CCOC(=O)c1cn2nc(Oc3ccc(NC(C)=O)cc3)ccc2n1 0.0937%
CC(C)(C)OC(=O)NCCCCCC(=O)N/N=C/c1coc2ccccc2c1=O 0.254%
CC(=O)Nc1ccc(CC#N)cc1 -5.15%
CC1=C(C)Cc2c(OC(=O)c3ccccc3)ccc(OC(=O)c3ccccc3)c2C1 -0.853%
Cc1cc(-n2cnc(-c3cn[nH]c3C)n2)no1 0.0385%
Cn1nc(-c2ccccc2)cc1NC(=O)CCCC(=O)O -2.32%
Cc1ccc(-n2c(-c3ccc(Cl)cc3)c[n+]3c2CCC3)cc1 -3.48%
CC1(C)CC(=O)c2cnc(N3CCc4ccccc43)nc2C1 -13.5%
COc1ccc(NC(=O)Oc2cc(C)ccc2C(C)C)cc1 -6.96%

Potency, active:
Cc1cc(=O)cc2oc3cc(N)c(-c4c(C)cc(O)cc4O)c(C)c3nc1-2 8.88 µM
N[C@H](Cc1ccc(O)c(O)c1)C(=O)O 8.91 µM
